# From ChEMBL document CHEMBL5606458, “ASAP - ZIKV NS2B-NS3 protease fluorescence single point” (2024)
# Hit rate of the full screen: of about 2,700 compounds, about 160 (5.9%) showed an effect of 50% or more. The list shows a part of the results.
# Biological target: Nonstructural protein 3 (Zika virus) (UniProt A0A024AXB9)
# [1] = PRVABC59, Concentration 15.0 uM, Number of replicates 1.0
# [2] = PRVABC59, Concentration 50.0 uM, Number of replicates 1.0
# UniProt A0A024AXB9, sequence (A0A024AXB9 as listed by the source): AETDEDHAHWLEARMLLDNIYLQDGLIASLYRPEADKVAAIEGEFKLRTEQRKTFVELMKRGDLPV
compound,measurement,setting,value
CN(C)C(=O)CN1CCN(C(=O)c2cc(Cl)ccc2NS(=O)(=O)c2ccc(Oc3ccccc3Cl)cc2)CC1,inhibition,[1],3.21%
O=C(Nc1c(Cl)cc(Cl)cc1Br)c1cc(Cl)ccc1NS(=O)(=O)c1ccc(Oc2ccccc2Cl)cc1,inhibition,[1],21.5%
CCc1n[nH]c([C@H]2CN(C(=O)c3cn([C@H]4CCCNC4)nn3)CCO2)n1,inhibition,"PRVABC59, Concentration 49.5 uM, Number of replicates 2.0, Standard deviation 0.0019020029795996259 %",1.98%
same,inhibition,"PRVABC59, Concentration 99.01 uM, Number of replicates 2.0, Standard deviation 1.1165044088819678 %",3.17%
same,inhibition,"PRVABC59, Concentration 198.0 uM, Number of replicates 2.0, Standard deviation 2.162632853057415 %",5.07%
CC(=O)Nc1ccc(NC(=O)c2cc(Cl)ccc2NS(=O)(=O)c2ccc(Oc3ccccc3Cl)cc2)cc1,inhibition,[1],63.1%
CN(C(=O)C1CCN(c2ccc(C=O)cc2)CC1)[C@H]1CCN(Cc2ccccc2)C1,inhibition,[2],13.4%
N#Cc1cc(Cl)ccc1NC(=O)C1CCN(c2ccc(C=O)cc2)CC1,inhibition,[2],20.6%
Cc1ccc2ccccc2c1NC(=O)c1cc(Cl)ccc1NS(=O)(=O)c1ccc(Oc2ccccc2Cl)cc1,inhibition,[1],26.4%
O=C(NCc1nc(-c2ccccn2)no1)c1cc(Cl)ccc1NS(=O)(=O)c1ccc(Oc2ccccc2Cl)cc1,inhibition,[1],54%
O=C(NCCN1C(=O)CSC1=O)c1cc(Cl)ccc1NS(=O)(=O)c1ccc(Oc2ccccc2Cl)cc1,inhibition,[1],10.6%
c1cnc2c(C3CCN(Cc4csc5ccccc45)CC3)c[nH]c2c1,inhibition,"PRVABC59, Concentration 49.5 uM, Number of replicates 2.0, Standard deviation 0.9335257205332559 %",11.4%
same,inhibition,"PRVABC59, Concentration 99.01 uM, Number of replicates 2.0, Standard deviation 1.6284840941050231 %",16.1%
same,inhibition,"PRVABC59, Concentration 198.0 uM, Number of replicates 2.0, Standard deviation 1.395101821034739 %",13.2%
COc1ccc(NC(=O)c2cc(Cl)ccc2NS(=O)(=O)c2ccc(Oc3ccccc3Cl)cc2)cc1C(F)(F)F,inhibition,[1],51.3%
NC(=O)c1c(NC(=O)c2cc(Cl)ccc2NS(=O)(=O)c2ccc(Oc3ccccc3Cl)cc2)sc2c1CCCC2,inhibition,[1],41.9%
CC(C)N(C[C@H](O)c1ccc(O)c(O)c1)C(=O)c1cc(Cl)ccc1NS(=O)(=O)c1ccc(Oc2ccccc2Cl)cc1,inhibition,[1],6.32%
O=C(NCc1ccccc1N1CCOCC1)c1cc(Cl)ccc1NS(=O)(=O)c1ccc(Oc2ccccc2Cl)cc1,inhibition,[1],22%
Cc1ccc(NC(=O)C2CCN(c3ccc(C=O)cc3)CC2)cc1Br,inhibition,[2],18.1%
COc1cc(Cc2cnn(-c3ccc(F)cc3)c2)nc(N2CCNCC2)n1,inhibition,"PRVABC59, Concentration 49.5 uM, Number of replicates 2.0, Standard deviation 1.9362885979262678 %",4.42%
same,inhibition,"PRVABC59, Concentration 99.01 uM, Number of replicates 2.0, Standard deviation 2.731346748235773 %",8.59%
same,inhibition,"PRVABC59, Concentration 198.0 uM, Number of replicates 2.0, Standard deviation 2.5982028307411302 %",15.7%
CC(C)(CO)NC(=O)c1cc(Cl)cc(NC(=O)c2cc(Cc3ccccc3)c[nH]2)c1,inhibition,"PRVABC59, Concentration 49.5 uM, Number of replicates 2.0, Standard deviation 1.6983362577782506 %",4.04%
same,inhibition,"PRVABC59, Concentration 99.01 uM, Number of replicates 2.0, Standard deviation 1.226576129977383 %",6.14%
same,inhibition,"PRVABC59, Concentration 198.0 uM, Number of replicates 2.0, Standard deviation 1.4604051596418826 %",8.64%
NCc1cccc(NC(=O)C2(NC(=O)OCc3ccccc3)CC2)c1,inhibition,"PRVABC59, Concentration 49.5 uM, Number of replicates 2.0, Standard deviation 2.2679171979241746 %",0.039%
same,inhibition,"PRVABC59, Concentration 99.01 uM, Number of replicates 2.0, Standard deviation 1.0231068239944325 %",4.59%
same,inhibition,"PRVABC59, Concentration 198.0 uM, Number of replicates 2.0, Standard deviation 2.475082445346742 %",9.54%
Cc1cc(CO)c2cccc(Cc3ccccc3NC(=O)C3(C(N)=O)CC3)c2n1,inhibition,"PRVABC59, Concentration 49.95 uM, Number of replicates 2.0, Standard deviation 1.5676160685642115 %",-1.28%
same,inhibition,"PRVABC59, Concentration 99.9 uM, Number of replicates 2.0, Standard deviation 1.2673258947538377 %",3.64%
Cn1cc(CNC(=O)c2cccc3ncccc23)cn1,inhibition,"PRVABC59, Concentration 49.5 uM, Number of replicates 2.0, Standard deviation 3.4483583759971688 %",-6.59%
same,inhibition,"PRVABC59, Concentration 99.01 uM, Number of replicates 2.0, Standard deviation 3.226070839328892 %",-5.64%
same,inhibition,"PRVABC59, Concentration 198.0 uM, Number of replicates 2.0, Standard deviation 3.66484751783471 %",-4.62%
O=C(c1cc2ccccc2[nH]1)N1CCC[C@H](c2c[nH]c3ncccc23)C1,inhibition,"PRVABC59, Concentration 49.5 uM, Number of replicates 2.0, Standard deviation 0.30571435730989244 %",3.85%
same,inhibition,"PRVABC59, Concentration 99.01 uM, Number of replicates 2.0, Standard deviation 1.984552134267851 %",8.09%
same,inhibition,"PRVABC59, Concentration 198.0 uM, Number of replicates 2.0, Standard deviation 2.494939680141559 %",7.71%
O=Cc1ccc(N2CCC(C(=O)Nc3ccn([C@H]4C[C@H](O)[C@@H](CO)O4)c(=O)n3)CC2)cc1,inhibition,[2],20.2%
Cc1ccccc1OC1CN(C(=O)C2CCN(c3ccc(C=O)cc3)CC2)C1,inhibition,[2],28.9%
CN(CCC(c1ccccc1)c1ccccc1)C(=O)c1cc(Cl)ccc1NS(=O)(=O)c1ccc(Oc2ccccc2Cl)cc1,inhibition,[1],4.15%
Cc1cc(CO)c2cccc(C[C@H](NC(=O)C[C@H]3CCCN3)C(=O)O)c2n1,inhibition,"PRVABC59, Concentration 49.95 uM, Number of replicates 2.0, Standard deviation 2.157802234162187 %",-2.33%
same,inhibition,"PRVABC59, Concentration 99.9 uM, Number of replicates 2.0, Standard deviation 1.8065320647932943 %",-0.49%
C[C@@]1(CNC(=O)c2ccnc3[nH]cnc23)CCCN1C(=O)c1cc[nH]n1,inhibition,"PRVABC59, Concentration 49.5 uM, Number of replicates 2.0, Standard deviation 1.69185761281255 %",-0.335%
same,inhibition,"PRVABC59, Concentration 99.01 uM, Number of replicates 2.0, Standard deviation 1.822592163565219 %",-1.72%
same,inhibition,"PRVABC59, Concentration 198.0 uM, Number of replicates 2.0, Standard deviation 2.8325799380236654 %",-4.63%
O=Cc1ccc(N2CCC(C(=O)NCc3ccccc3N3CCOCC3)CC2)cc1,inhibition,"PRVABC59, Concentration 10.0 uM, Number of replicates 1.0",18.6%
COc1ccccc1C1CCN(C(=O)c2cc(Cl)ccc2NS(=O)(=O)c2ccc(Oc3ccccc3Cl)cc2)CC1,inhibition,[1],1.59%
Cc1cc(CO)c2cccc(NC(=O)c3cccc(Cn4cncn4)c3)c2n1,inhibition,"PRVABC59, Concentration 49.95 uM, Number of replicates 2.0, Standard deviation 2.574308180740061 %",-0.138%
same,inhibition,"PRVABC59, Concentration 99.9 uM, Number of replicates 2.0, Standard deviation 1.9018768762288814 %",11.1%
O=C(Nc1cc(Cl)ccc1OC(F)(F)F)c1cc(Cl)ccc1NS(=O)(=O)c1ccc(Oc2ccccc2Cl)cc1,inhibition,[1],23.2%
COc1cc(COc2ccc(CO)cc2F)nc(N2CCNCC2)n1,inhibition,"PRVABC59, Concentration 49.5 uM, Number of replicates 2.0, Standard deviation 1.1475105809259771 %",0.441%
same,inhibition,"PRVABC59, Concentration 99.01 uM, Number of replicates 2.0, Standard deviation 0.43704832054208337 %",3.74%
same,inhibition,"PRVABC59, Concentration 198.0 uM, Number of replicates 2.0, Standard deviation 1.1371536672540012 %",9.77%
Cc1cc(CO)c2cccc(Cc3ccccc3NC(=O)Cc3cccc(CN)c3)c2n1,inhibition,"PRVABC59, Concentration 49.95 uM, Number of replicates 2.0, Standard deviation 1.7712024268821889 %",-1.52%
same,inhibition,"PRVABC59, Concentration 99.9 uM, Number of replicates 2.0, Standard deviation 1.0942771725016864 %",9.23%
Nc1ccc(-c2cccc3c2CCB(O)O3)cn1,inhibition,"PRVABC59, Concentration 500.0 uM, Number of replicates 2.0, Standard deviation 1.552271802404108 %",18.4%
O=C(c1cc(Cl)ccc1NS(=O)(=O)c1ccc(Oc2ccccc2Cl)cc1)N(Cc1cccc(F)c1)C1CCCC1,inhibition,[1],23.4%
O=C(NC1CCN(C(=O)Nc2ccccc2)CC1)c1cc(Cl)ccc1NS(=O)(=O)c1ccc(Oc2ccccc2Cl)cc1,inhibition,[1],18.2%
CCn1ccnc(N[C@@H](CO)Cc2c[nH]c3ccccc23)c1=O,inhibition,"PRVABC59, Concentration 49.5 uM, Number of replicates 2.0, Standard deviation 2.559614693531102 %",-0.575%
same,inhibition,"PRVABC59, Concentration 99.01 uM, Number of replicates 2.0, Standard deviation 2.6505011797210702 %",2.02%
same,inhibition,"PRVABC59, Concentration 198.0 uM, Number of replicates 2.0, Standard deviation 3.157774062953111 %",7.6%
O=Cc1ccc(N2CCC(C(=O)N3CCC(O)(c4ccc(Br)cc4)CC3)CC2)cc1,inhibition,[2],13.8%
O=C(c1ccc(O)cc1)N1CCN(C(=O)c2cc(Cl)ccc2NS(=O)(=O)c2ccc(Oc3ccccc3Cl)cc2)CC1,inhibition,[1],2.91%
COc1ccc([C@H](C)N(C)C(=O)C2CCN(c3ccc(C=O)cc3)CC2)cc1,inhibition,[2],27.8%
O=C(NCCNC(=O)c1cc(Cl)ccc1NS(=O)(=O)c1ccc(Oc2ccccc2Cl)cc1)c1ccc(F)cc1,inhibition,[1],38.7%
c1ccc2c(CN3CCC(c4c[nH]c5ncccc45)CC3)ccnc2c1,inhibition,"PRVABC59, Concentration 49.5 uM, Number of replicates 2.0, Standard deviation 1.5534330323742802 %",7.15%
same,inhibition,"PRVABC59, Concentration 99.01 uM, Number of replicates 2.0, Standard deviation 1.0997070352890421 %",10.6%
same,inhibition,"PRVABC59, Concentration 198.0 uM, Number of replicates 2.0, Standard deviation 1.8020846028978792 %",9.85%
CC1(C)Cc2sc(NC(=O)Cc3ccc(S(N)(=O)=O)cc3)c(C#N)c2CN1CC1CCCCC1,inhibition,"PRVABC59, Concentration 49.5 uM, Number of replicates 2.0, Standard deviation 1.0406888454660856 %",-1.66%
same,inhibition,"PRVABC59, Concentration 99.01 uM, Number of replicates 2.0, Standard deviation 0.332333969654585 %",-2.97%
same,inhibition,"PRVABC59, Concentration 198.0 uM, Number of replicates 2.0, Standard deviation 0.7848073624020794 %",-3.46%
C[C@@H](c1ccccc1)N(Cc1ccncc1)C(=O)C1CCN(c2ccc(C=O)cc2)CC1,inhibition,[2],21.5%
Cc1c(C(=O)NCCc2n[nH]c(=O)[nH]2)ccc(O)c1NC(=O)c1ccncc1F,inhibition,"PRVABC59, Concentration 49.5 uM, Number of replicates 2.0, Standard deviation 2.4379418837956695 %",3.24%
same,inhibition,"PRVABC59, Concentration 99.01 uM, Number of replicates 2.0, Standard deviation 1.9819611146087952 %",4.74%
same,inhibition,"PRVABC59, Concentration 198.0 uM, Number of replicates 2.0, Standard deviation 0.24871664525769976 %",5.38%
